Consider 11 molecules from PMC5412858.

Amino acid sequences for entries named in this document (tags omitted). A change or cut given only in a name is not applied to a line headed by its entry. Chains listed by the source or under a name are the forms on record and can include a tag or linker. Residues count along the entry.
UniProt P43565: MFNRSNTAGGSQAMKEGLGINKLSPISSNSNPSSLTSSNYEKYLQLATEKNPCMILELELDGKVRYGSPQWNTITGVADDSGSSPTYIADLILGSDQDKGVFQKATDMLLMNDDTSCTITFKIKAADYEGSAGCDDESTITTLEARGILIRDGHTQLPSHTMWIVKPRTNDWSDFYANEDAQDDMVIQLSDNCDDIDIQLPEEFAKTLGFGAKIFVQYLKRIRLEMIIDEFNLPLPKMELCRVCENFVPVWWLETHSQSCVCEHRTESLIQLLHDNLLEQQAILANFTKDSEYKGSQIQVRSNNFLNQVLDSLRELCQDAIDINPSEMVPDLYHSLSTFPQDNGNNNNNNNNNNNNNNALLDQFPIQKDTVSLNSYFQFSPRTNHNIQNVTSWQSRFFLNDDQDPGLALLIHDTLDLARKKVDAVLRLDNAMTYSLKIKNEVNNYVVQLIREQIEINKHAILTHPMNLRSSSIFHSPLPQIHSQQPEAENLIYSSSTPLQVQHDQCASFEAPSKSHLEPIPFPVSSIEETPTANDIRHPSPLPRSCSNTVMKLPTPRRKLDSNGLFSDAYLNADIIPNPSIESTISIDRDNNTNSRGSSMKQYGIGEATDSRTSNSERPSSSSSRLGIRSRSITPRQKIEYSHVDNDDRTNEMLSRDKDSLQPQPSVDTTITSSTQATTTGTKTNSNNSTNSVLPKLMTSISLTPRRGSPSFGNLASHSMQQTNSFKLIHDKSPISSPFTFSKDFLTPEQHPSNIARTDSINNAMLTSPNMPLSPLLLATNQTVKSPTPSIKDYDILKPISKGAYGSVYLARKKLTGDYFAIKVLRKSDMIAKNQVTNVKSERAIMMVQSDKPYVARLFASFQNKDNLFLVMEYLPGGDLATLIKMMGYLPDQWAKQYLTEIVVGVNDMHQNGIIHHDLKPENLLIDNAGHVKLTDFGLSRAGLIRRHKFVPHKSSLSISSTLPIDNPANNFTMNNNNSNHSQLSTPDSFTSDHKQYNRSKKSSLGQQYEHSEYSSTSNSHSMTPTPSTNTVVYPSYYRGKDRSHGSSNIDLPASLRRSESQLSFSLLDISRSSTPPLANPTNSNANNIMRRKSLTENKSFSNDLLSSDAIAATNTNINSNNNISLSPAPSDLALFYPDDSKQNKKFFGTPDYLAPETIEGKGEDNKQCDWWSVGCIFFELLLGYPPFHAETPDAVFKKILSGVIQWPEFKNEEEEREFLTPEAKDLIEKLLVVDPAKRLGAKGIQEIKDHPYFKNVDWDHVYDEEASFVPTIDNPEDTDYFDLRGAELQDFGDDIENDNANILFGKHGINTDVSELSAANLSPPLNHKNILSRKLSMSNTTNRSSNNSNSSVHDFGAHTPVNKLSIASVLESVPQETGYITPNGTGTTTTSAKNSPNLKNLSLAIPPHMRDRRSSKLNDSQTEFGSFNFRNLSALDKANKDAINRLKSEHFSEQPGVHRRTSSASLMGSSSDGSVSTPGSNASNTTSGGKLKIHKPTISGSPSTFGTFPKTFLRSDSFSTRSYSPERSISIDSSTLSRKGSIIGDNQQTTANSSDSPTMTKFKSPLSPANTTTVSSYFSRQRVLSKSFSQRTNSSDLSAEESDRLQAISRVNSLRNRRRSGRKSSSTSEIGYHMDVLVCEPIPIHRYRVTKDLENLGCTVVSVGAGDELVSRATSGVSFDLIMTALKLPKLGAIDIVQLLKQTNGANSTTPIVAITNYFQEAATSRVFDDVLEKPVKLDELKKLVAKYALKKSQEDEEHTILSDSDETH
Sic1^150-285-myc13 (P38634, residues 150-284): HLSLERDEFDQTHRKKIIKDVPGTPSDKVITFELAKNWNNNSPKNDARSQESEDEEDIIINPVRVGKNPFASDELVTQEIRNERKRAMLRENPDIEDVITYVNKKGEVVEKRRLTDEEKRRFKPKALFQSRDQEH
Sic1-myc13 (P38634, form named): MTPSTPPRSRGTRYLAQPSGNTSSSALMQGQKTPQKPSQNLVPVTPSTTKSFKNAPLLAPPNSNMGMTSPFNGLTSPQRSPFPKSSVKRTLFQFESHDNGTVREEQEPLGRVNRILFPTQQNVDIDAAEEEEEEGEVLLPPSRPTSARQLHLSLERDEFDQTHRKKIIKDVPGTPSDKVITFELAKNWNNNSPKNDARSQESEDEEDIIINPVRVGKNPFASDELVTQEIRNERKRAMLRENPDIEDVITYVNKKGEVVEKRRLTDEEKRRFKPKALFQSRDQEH
Sic1^150-285-myc13 (T173A) (P38634, form named): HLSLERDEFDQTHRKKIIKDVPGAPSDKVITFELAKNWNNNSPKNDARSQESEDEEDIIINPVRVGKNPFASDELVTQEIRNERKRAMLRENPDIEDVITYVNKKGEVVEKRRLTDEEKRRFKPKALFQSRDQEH
Sic1^T173A-myc13 (P38634, form named): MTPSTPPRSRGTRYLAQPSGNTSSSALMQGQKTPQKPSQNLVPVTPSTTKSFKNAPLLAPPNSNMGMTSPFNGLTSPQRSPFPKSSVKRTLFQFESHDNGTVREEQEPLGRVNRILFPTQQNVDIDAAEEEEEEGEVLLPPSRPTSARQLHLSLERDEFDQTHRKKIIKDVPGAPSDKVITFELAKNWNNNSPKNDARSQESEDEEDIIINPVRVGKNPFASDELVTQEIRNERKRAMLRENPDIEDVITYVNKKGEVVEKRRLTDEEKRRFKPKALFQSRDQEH

Test [1] has as its target T1, Cks1-HA3 (S. cerevisiae) (UniProt P20486).
T1 sequence: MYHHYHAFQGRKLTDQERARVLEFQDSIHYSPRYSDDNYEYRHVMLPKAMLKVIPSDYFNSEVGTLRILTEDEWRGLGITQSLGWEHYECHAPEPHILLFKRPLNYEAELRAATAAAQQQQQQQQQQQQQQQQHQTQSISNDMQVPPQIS
The test is described as follows: co-IP; HA3-tagged bait precipitated with anti-HA magnetic matrix from extracts of exponentially growing or rapamycin-treated yeast cells (also mpk1Δ, cdc55Δ genotypes in Figure 4a); lysis buffer 50 mM TRIS pH 7.5, 1 mM EDTA, 150 mM NaCl, 0.5% NP40; immunoblot with anti-HA, anti-Sic1 or anti-myc. On the technique in general: A western blot detects proteins with antibodies after separation by electrophoresis.

A further test has as its target T2, Clb5-HA3 (S. cerevisiae) (UniProt P30283).
T2 sequence: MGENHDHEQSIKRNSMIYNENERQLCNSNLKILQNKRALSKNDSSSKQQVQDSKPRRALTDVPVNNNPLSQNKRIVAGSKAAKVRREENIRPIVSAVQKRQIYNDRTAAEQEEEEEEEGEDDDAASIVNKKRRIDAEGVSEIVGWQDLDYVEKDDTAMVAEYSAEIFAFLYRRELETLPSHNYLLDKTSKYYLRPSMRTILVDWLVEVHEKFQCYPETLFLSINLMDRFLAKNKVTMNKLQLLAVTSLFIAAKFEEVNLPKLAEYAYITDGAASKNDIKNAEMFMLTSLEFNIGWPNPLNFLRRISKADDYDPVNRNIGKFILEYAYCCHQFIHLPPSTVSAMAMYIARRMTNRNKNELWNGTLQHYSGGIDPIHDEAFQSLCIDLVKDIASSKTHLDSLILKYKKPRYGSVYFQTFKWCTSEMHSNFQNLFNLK
The description is as above.

The next test concerns the target T3, Cln2-HA3 (S. cerevisiae) (UniProt P20438).
T3 sequence: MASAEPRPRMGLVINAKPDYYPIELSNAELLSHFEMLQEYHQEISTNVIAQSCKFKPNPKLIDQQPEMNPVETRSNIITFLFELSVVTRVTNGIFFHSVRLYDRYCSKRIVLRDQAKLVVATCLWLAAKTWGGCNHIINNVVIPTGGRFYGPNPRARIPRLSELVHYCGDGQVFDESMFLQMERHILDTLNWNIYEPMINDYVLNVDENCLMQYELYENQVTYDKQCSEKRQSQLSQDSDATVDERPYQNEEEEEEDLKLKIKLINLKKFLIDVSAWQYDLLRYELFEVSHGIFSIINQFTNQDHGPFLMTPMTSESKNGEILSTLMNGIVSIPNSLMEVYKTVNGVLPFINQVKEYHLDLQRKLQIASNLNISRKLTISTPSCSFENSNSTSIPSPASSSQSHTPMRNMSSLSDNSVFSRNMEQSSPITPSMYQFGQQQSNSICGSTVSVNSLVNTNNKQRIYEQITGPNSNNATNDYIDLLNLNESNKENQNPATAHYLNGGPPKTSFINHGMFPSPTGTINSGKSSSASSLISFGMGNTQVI
The test is described as above.

In test [2] the target is T4, Cln2-myc13 (S. cerevisiae) (UniProt P20438).
T4 sequence: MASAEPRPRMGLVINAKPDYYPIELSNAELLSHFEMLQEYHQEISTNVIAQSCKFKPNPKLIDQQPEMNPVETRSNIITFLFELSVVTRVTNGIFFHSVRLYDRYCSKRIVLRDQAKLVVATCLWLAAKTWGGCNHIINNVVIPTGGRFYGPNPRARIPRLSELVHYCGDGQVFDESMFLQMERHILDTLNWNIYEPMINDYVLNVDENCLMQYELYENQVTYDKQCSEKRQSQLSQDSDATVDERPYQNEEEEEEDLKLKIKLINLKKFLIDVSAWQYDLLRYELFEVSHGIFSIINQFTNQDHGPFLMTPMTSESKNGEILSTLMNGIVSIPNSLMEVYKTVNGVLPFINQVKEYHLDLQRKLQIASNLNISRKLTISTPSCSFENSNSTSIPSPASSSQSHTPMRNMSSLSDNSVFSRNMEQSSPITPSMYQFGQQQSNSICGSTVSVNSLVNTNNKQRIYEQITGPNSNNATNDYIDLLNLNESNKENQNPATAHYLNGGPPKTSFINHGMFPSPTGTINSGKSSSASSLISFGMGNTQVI
The test is described as follows: co-IP; Figure 3e: extracts of rapamycin-treated (30 min) WT or sic1^T173A cells with Cln2-myc13 and Cks1-HA3; the legend says Cln2-myc13 was IPed but also IP: anti-HA; immunoblot with anti-myc and anti-HA.

In test [3] the target is GST-Rim15 (S. cerevisiae) (UniProt P43565). The test is described as follows: pull-down; plasmid-encoded GST-Rim15 pulled down with glutathione-sepharose beads from extracts of untreated and rapamycin-treated (1 h) rim15Δ cells that co-expressed the HA3-tagged protein; immunoblot with anti-HA and anti-GST.
For test [4], the target named is T1, Cks1-HA3 (S. cerevisiae). The test is described as follows: co-IP; HA3-tagged bait precipitated with anti-HA magnetic matrix from extracts of exponentially growing or rapamycin-treated yeast cells (also mpk1Δ, cdc55Δ genotypes in Figure 4a); lysis buffer 50 mM TRIS pH 7.5, 1 mM EDTA, 150 mM NaCl, 0.5% NP40; immunoblot with anti-HA, anti-Sic1 or anti-myc. The source holds these as a separate data set.

Where two headings read alike, the source gives them in different places. These are yes or no findings as the source states them, for the method shown. Binding seen in cells or lysates may run through a third protein. Some binding calls cover weakened binding; strength is not graded here. For some assays here: Sequences can lack the tags named with a protein.

Consider “Sic1^150-285-myc13 (from UniProt P38634 150-284) (domain or fragment)”, for which the binding result with Cks1-HA3 (S. cerevisiae) [1] is “binds”.
Regarding Sic1 (from UniProt P38634 1-284), the binding entry in the test with Cks1-HA3 (S. cerevisiae) [1] is reported as “binds”; with Clb5-HA3 (S. cerevisiae) it was “binds”; with Cln2-HA3 (S. cerevisiae) it was “no binding”.
As to “Sic1^150-285-myc13 (T173A) (from UniProt P38634 150-284) (domain or fragment)”, the binding result with Cks1-HA3 (S. cerevisiae) [1] is listed as “no binding”.
For the molecule Sic1^T173A (from UniProt P38634 1-284), the results for the binding entry with Clb5-HA3 (S. cerevisiae) and with Cln2-HA3 (S. cerevisiae) were “binds” and “no binding”, respectively.
Regarding Sic1-myc13 (from UniProt P38634 1-284), in the test with Clb5-HA3 (S. cerevisiae), the binding entry was “binds”.
Still for that read-out and setting: to “Sic1^T173A-myc13 (from UniProt P38634 1-284)” belongs “binds”.

B1: Cks1-HA3 (protein, UniProt P20486 1-150)
chain: MYHHYHAFQGRKLTDQERARVLEFQDSIHYSPRYSDDNYEYRHVMLPKAMLKVIPSDYFNSEVGTLRILTEDEWRGLGITQSLGWEHYECHAPEPHILLFKRPLNYEAELRAATAAAQQQQQQQQQQQQQQQQHQTQSISNDMQVPPQIS
As for B1, the binding result in test [2] was “binds”.

B2: Lst7-HA3 (protein, UniProt P53237 1-242)
chain: MSSTVISLAHFCDKHGPRIISVTQSAEKGTLGEELLVPDYPTESYCESCLLQFPEESTRSMRCFIEDVPFITTQYSSIRYQLLNSIIKRAFSEETMIYDNMPFIFFDDLRGLNLVIGFKLYDENARGNERRYCFILTVDSRSHDDSMKMLSEHWNFIIGGFDKMIAYIKNIHKSEFLGKNKTVENNLETLNNNAFIGSYLRANKSKFGRNLVSLTDDKFLFVRIHKWNSFLLHTVMNENKLP
With B2, the binding entry in test [3] was “no binding”.

B3: Cln2-HA3 (protein, UniProt P20438 1-545)
chain: MASAEPRPRMGLVINAKPDYYPIELSNAELLSHFEMLQEYHQEISTNVIAQSCKFKPNPKLIDQQPEMNPVETRSNIITFLFELSVVTRVTNGIFFHSVRLYDRYCSKRIVLRDQAKLVVATCLWLAAKTWGGCNHIINNVVIPTGGRFYGPNPRARIPRLSELVHYCGDGQVFDESMFLQMERHILDTLNWNIYEPMINDYVLNVDENCLMQYELYENQVTYDKQCSEKRQSQLSQDSDATVDERPYQNEEEEEEDLKLKIKLINLKKFLIDVSAWQYDLLRYELFEVSHGIFSIINQFTNQDHGPFLMTPMTSESKNGEILSTLMNGIVSIPNSLMEVYKTVNGVLPFINQVKEYHLDLQRKLQIASNLNISRKLTISTPSCSFENSNSTSIPSPASSSQSHTPMRNMSSLSDNSVFSRNMEQSSPITPSMYQFGQQQSNSICGSTVSVNSLVNTNNKQRIYEQITGPNSNNATNDYIDLLNLNESNKENQNPATAHYLNGGPPKTSFINHGMFPSPTGTINSGKSSSASSLISFGMGNTQVI
Consider B3, for which the binding entry in test [3] is reported as “binds”.

B4: Clb5-myc13 (protein, UniProt P30283 1-435)
chain: MGENHDHEQSIKRNSMIYNENERQLCNSNLKILQNKRALSKNDSSSKQQVQDSKPRRALTDVPVNNNPLSQNKRIVAGSKAAKVRREENIRPIVSAVQKRQIYNDRTAAEQEEEEEEEGEDDDAASIVNKKRRIDAEGVSEIVGWQDLDYVEKDDTAMVAEYSAEIFAFLYRRELETLPSHNYLLDKTSKYYLRPSMRTILVDWLVEVHEKFQCYPETLFLSINLMDRFLAKNKVTMNKLQLLAVTSLFIAAKFEEVNLPKLAEYAYITDGAASKNDIKNAEMFMLTSLEFNIGWPNPLNFLRRISKADDYDPVNRNIGKFILEYAYCCHQFIHLPPSTVSAMAMYIARRMTNRNKNELWNGTLQHYSGGIDPIHDEAFQSLCIDLVKDIASSKTHLDSLILKYKKPRYGSVYFQTFKWCTSEMHSNFQNLFNLK
Take B4: the binding result with Cks1-HA3 (S. cerevisiae) [4] was “binds”.

B5: Clb5-HA3 (protein, UniProt P30283 1-435)
chain: MGENHDHEQSIKRNSMIYNENERQLCNSNLKILQNKRALSKNDSSSKQQVQDSKPRRALTDVPVNNNPLSQNKRIVAGSKAAKVRREENIRPIVSAVQKRQIYNDRTAAEQEEEEEEEGEDDDAASIVNKKRRIDAEGVSEIVGWQDLDYVEKDDTAMVAEYSAEIFAFLYRRELETLPSHNYLLDKTSKYYLRPSMRTILVDWLVEVHEKFQCYPETLFLSINLMDRFLAKNKVTMNKLQLLAVTSLFIAAKFEEVNLPKLAEYAYITDGAASKNDIKNAEMFMLTSLEFNIGWPNPLNFLRRISKADDYDPVNRNIGKFILEYAYCCHQFIHLPPSTVSAMAMYIARRMTNRNKNELWNGTLQHYSGGIDPIHDEAFQSLCIDLVKDIASSKTHLDSLILKYKKPRYGSVYFQTFKWCTSEMHSNFQNLFNLK
As to B5, in test [3], the binding result is recorded as “no binding”.
